# Source: the BET-seq Pho4 binding data (Le et al. 2018)
# This is one part of the list. These are noisy estimates, calculated here from bound and input reads.
# Biological target: T1, Pho4 (S. cerevisiae) (UniProt P07270)
# T1 sequence: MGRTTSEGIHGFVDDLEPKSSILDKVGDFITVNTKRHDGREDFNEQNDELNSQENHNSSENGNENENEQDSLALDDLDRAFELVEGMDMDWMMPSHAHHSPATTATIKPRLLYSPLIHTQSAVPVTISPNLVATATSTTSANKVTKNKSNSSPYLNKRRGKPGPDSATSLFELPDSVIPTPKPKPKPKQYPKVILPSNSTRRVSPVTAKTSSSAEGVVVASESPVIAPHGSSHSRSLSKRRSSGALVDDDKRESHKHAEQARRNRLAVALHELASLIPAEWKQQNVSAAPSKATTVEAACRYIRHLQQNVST
# Assay: relative binding free energy (BET-seq); higher = weaker binding
# Details: reference: library average
row,Sequence,relative binding free energy
1,GGTAGCACGTGTCGGT,0.15 kcal/mol
2,CGCTGCACGTGGGTTT,-0.15 kcal/mol
3,TATGGCACGTGACGGT,-0.16 kcal/mol
4,TTTCACACGTGCTTGT,-0.08 kcal/mol
5,GTTAGCACGTGCGGTT,-0.1 kcal/mol
6,CATATCACGTGTATTT,-0.02 kcal/mol
7,TAGCGCACGTGGGTTA,-0.22 kcal/mol
8,TGAGGCACGTGTAAGA,0.03 kcal/mol
9,TTTCACACGTGATGTA,0 kcal/mol
10,AGGAGCACGTGGCGAG,-0.11 kcal/mol
11,TTGGGCACGTGATTGC,-0.06 kcal/mol
12,TTGTACACGTGTGCGA,0 kcal/mol
13,TTAGACACGTGCAGTT,-0.11 kcal/mol
14,TTGGGCACGTGCTGAC,-0.05 kcal/mol
15,ACAGTCACGTGTGGTT,0.09 kcal/mol
16,AGTTGCACGTGAGTTC,0.38 kcal/mol
17,AAATTCACGTGTTCTT,0.2 kcal/mol
18,TAGTACACGTGTGTTT,0.06 kcal/mol
19,GGTTTCACGTGACTGT,0.31 kcal/mol
20,CGTTACACGTGTTTCT,0.29 kcal/mol
21,TTACGCACGTGATAGG,0 kcal/mol

row,Sequence,relative binding free energy
1,ATGTCCACGTGGTGAG,-0.12 kcal/mol
2,GTTGACACGTGGTTAT,0.01 kcal/mol
3,CGAGCCACGTGTGGTT,0.07 kcal/mol
4,AATAGCACGTGGGGAA,-0.18 kcal/mol
5,TCGGGCACGTGGCGAG,-0.22 kcal/mol
6,TTCGTCACGTGGTACT,0.06 kcal/mol
7,ATGGGCACGTGGGGTT,-0.2 kcal/mol
8,TTTTACACGTGGATTG,0.07 kcal/mol
9,AGCGTCACGTGGGGCA,-0.14 kcal/mol
10,TTGTGCACGTGGGATC,-0.04 kcal/mol
11,ATGTGCACGTGAGTCT,0.13 kcal/mol
12,AAGTTCACGTGTAATG,0.24 kcal/mol
13,GATGACACGTGTGTTT,0.17 kcal/mol
14,CGTGGCACGTGATCGG,0.03 kcal/mol
15,GGAGACACGTGTCTGG,0.11 kcal/mol
16,TCGTTCACGTGTCTTG,0.43 kcal/mol
17,CTTGACACGTGTTTTA,0.09 kcal/mol
18,AGGAGCACGTGAGTTG,0.19 kcal/mol
19,ATTGTCACGTGTGTGG,0.06 kcal/mol
20,TATGGCACGTGAGGTT,0.16 kcal/mol
21,CGATCCACGTGTGTTT,0.25 kcal/mol

row,Sequence,relative binding free energy
1,CGGATCACGTGCGTTG,0.22 kcal/mol
2,AGCGGCACGTGGTGCG,-0.08 kcal/mol
3,ATAAACACGTGAGGTG,0.01 kcal/mol
4,ACGTGCACGTGTGCGA,-0.07 kcal/mol
5,TTTTGCACGTGTCGTG,0 kcal/mol
6,AGAGTCACGTGTGGAT,0.2 kcal/mol
7,GTAGACACGTGTGAAG,0.25 kcal/mol
8,TGTAGCACGTGGGGTT,-0.12 kcal/mol
9,ATGTTCACGTGAGTGG,0.3 kcal/mol
10,ATGGTCACGTGTTCTC,0.33 kcal/mol
11,CTCGGCACGTGAGTGG,-0.03 kcal/mol
12,AAATACACGTGGGTAG,-0.11 kcal/mol
13,GAATGCACGTGGCATG,0.06 kcal/mol
14,TAGCTCACGTGAGGGC,0.41 kcal/mol
15,GGGACCACGTGTTAGT,0.05 kcal/mol
16,GTTGGCACGTGTGCAT,-0.16 kcal/mol
17,AAGTGCACGTGAGGTC,0.2 kcal/mol
18,TTGTGCACGTGTTACA,0.04 kcal/mol
19,GATAGCACGTGTTATG,-0.08 kcal/mol
20,GCGGTCACGTGGTCGG,-0.02 kcal/mol
21,ATGTCCACGTGGGATG,-0.08 kcal/mol
